In ChEMBL document CHEMBL4888484, “Replenishing the malaria drug discovery pipeline: Screening and hit evaluation of the MMV Hit Generation Library 1 (HGL1) against asexual blood stage Plasmodium falciparum ,using a nano luciferase reporter read-out” (2022):
The campaign covered roughly 150,000 compounds. About 540 (0.36%) showed an effect of 50% or more. This is one part of the list.

System: Plasmodium falciparum
Assay: Primary screen in NF54 nanoGlo assay, in single point, at 2uM, 72h; a lower Z score goes with more inhibition
Format: functional, Erythrocyte
Conditions: timepoint 72 hour

SMILES	% Inhibition	Z score
O=C(N[C@H]1CS(=O)(=O)Cc2ccccc21)c1cc(C(F)(F)F)n[nH]1	-14%	1.6
Cc1nc(N2CCN(C(=O)CCCc3ccccc3)CC2)cc(-n2ccnc2)n1	-2%	0.23
CC1CC(N2C(=O)N3CCC[C@@]3(C)C2=O)C(=O)N1c1ccccc1 (some centres undefined)	8%	-0.86
CCOC(=O)CCNC(=O)N1CCCCCCN(C)C(=O)CC1	-10%	1.29
CC1CC(C)CN(Cc2ccc(CNC(=O)c3ccoc3)cc2)C1 (centres undefined)	-10%	1.94
c1ccc(-n2nnc3c2CCN(CCO[C@H]2CCOC2)C3)cc1	-3%	0.49
CCCCc1nc(CN(CCO)C(C)(C)CO)cs1	-3%	0.69
COCCC1(c2nc(-c3ccc(NC(C)(C)C)cn3)no2)CCC1	2%	-0.39
Cc1cc(C(=O)N2CCN(C(=O)c3ccco3)CC2)c2c(C)nn(-c3ccccc3Cl)c2n1	-8%	1.01
CC(C)CNC1(C(=O)NCC2CC2)CCCC1	1%	-0.19
CC1CCC(NC(=O)c2ccccc2N2C(=O)N3CCc4c([nH]c5ccccc45)[C@@]3(C)C2=O)CC1 (some centres undefined)	-11%	1.61
Cc1ocnc1C(=O)N1CC[C@H]2[C@H](CCC(=O)N2CCc2cccs2)C1	-10%	1.35
O=C(OC[C@@H](O)CN1CCN(c2ccccc2)CC1)c1ccccc1	-4%	0.85
CC[C@H]1CN(c2ncnc(C(F)(F)F)c2Br)CCO1	-11%	1.49
CC[C@H](NC(=O)c1ccc2nnnn2c1)c1nc(C)c(C)s1	-8%	1.21
CCn1nc(C)cc1C(=O)N(C)[C@@H](C)c1nc(C)sc1C	-8%	1.36
Cc1cn(CCOc2ccc(Cl)cc2)c(=O)n(Cc2ccccc2)c1=O	2%	-0.27
Cc1ccc(NC(=O)[C@@H]2CN(S(=O)(=O)c3cccs3)CCO2)cc1	-7%	0.82
CCc1nccn1CCC(=O)N1C[C@H](C(=O)O)[C@@H](c2ccccc2OC)C1	-12%	2.26
COc1cccc(C)c1NC(=O)N1CCN(C)[C@H](c2nc(C)no2)C1	-8%	1.41
CCNC(=O)NC(=O)C(C)N1CCCC(CN2CCC(C)CC2)C1 (centres undefined)	-13%	1.34
Cc1ccc(-n2nc3c(N4CCN(C(=O)Nc5ccc(C)c(F)c5)CC4)nnc(C)c3c2C)cc1	-4%	0.42
Cc1ccc(C(N)=O)cc1NC(=O)c1cnn2c1C[C@@H](C)CC2	-20%	2.5
Cn1c(-c2ccccc2)nnc1[C@@H](C#N)C(=O)Nc1ccccc1	9%	-0.93
O=C(c1c[nH]nc1-c1ccccc1)N1C[C@H]2CC=CC[C@H]2C1	-9%	1.43
Cc1nn(C)c(C)c1CCCN1C(=O)N[C@@H](C)C1=O	4%	-0.53

SMILES	% Inhibition	Z score
CC1CCN(c2nn(CC(=O)Nc3ccc4c(c3)OCO4)c(=O)c3ccccc23)CC1	-15%	2.33
Cc1ccc(OC(C)CNC(=O)N2CCS(=O)(=O)CC2C)cc1 (centres undefined)	-5%	0.57
Cc1cc(C)c(CC(=O)N2CCC3(CC2)OCC(=O)N3C)s1	-6%	0.94
CC(C)C(=O)Nc1cn(-c2ccc(C(=O)Nc3cccc(Cl)c3)cc2)cn1	23%	-3.37
CC(C)c1cc(C(=O)N2CCN(CC3CC3)[C@@H]3CS(=O)(=O)C[C@@H]32)no1	-11%	2.36
CCc1nnc2c(NC(=O)c3cccc(Br)c3)cccn12	-3%	0.64
CC(C)(C)NCc1ccccc1OCC(=O)O	2%	-0.26
CNCCNC(=O)c1ccc2c(c1)n(CC1CC1)c(=O)n2C1CCCCC1	15%	-2.03
Cc1ccc(C)c(Cn2c(C(=O)NCCc3ccccn3)cc3cc(NC(=O)c4ccccc4F)ccc32)c1	3%	-0.58
CCOc1cc(C(=O)Nc2ccc(N3CCN(c4c(F)c(F)c(F)c(F)c4F)CC3)c(Cl)c2)cc(OCC)c1OCC	21%	-2.4
Cc1cc(OCC2CCN(C(=O)c3cc4ccccn4c3)CC2)ncn1	-5%	0.72
O=C(NCCc1ccc2c(c1)OCO2)c1ccc(-n2cnnc2)nc1	-9%	0.89
O=C(c1cccc(Oc2ccc(F)cc2)c1)N1C2CCC1CC(n1ccnn1)C2 (centres undefined)	-13%	1.87
CC1=C(Cc2cn(C[C@H](O)c3cccnc3)nn2)C(C)(C)CCC1	-8%	1.13
COc1ccc(N2C(=O)N(c3ccc(F)cc3)C3CS(=O)(=O)CC32)cc1 (centres undefined)	3%	-0.35
COc1ccc(N2CCN(C(=O)Cc3coc4ccc(C)cc34)CC2)cc1	2%	-0.28
Cc1cc(C)c2[nH]c(C(=O)N(C)Cc3c(C)noc3C)c(C)c2c1	-6%	1.26
CNc1nc(C)c(C(=O)N(C)Cc2csc(-c3ccccc3)n2)s1	-5%	0.78
Cn1cncc1-c1ccc(C(=O)N2CCC[C@H](C(=O)N3CCCC3)C2)cc1	1%	-0.23
O=C(c1ccc(CO)o1)N1CC[C@H]2[C@H](CCC(=O)N2CCc2ccccn2)C1	-5%	0.61
Brc1ccc(-c2noc(C3CCCCC3)n2)o1	1%	-0.15
Cn1cccc(C(=O)Nc2cnn(C[C@H]3COc4ccccc4O3)c2)c1=O	10%	-1.3
O=C(NCc1nccnc1-c1ccoc1)c1cncc(Br)c1	13%	-1.61
CCc1cc(N2CCC[C@H](c3nnc(Cn4ccnc4C)n3C)C2)nc(C)n1	0%	0.07
O=C(Nc1cccc(-c2cn[nH]c2)c1)C(F)(F)Cl	0%	0.06
CCNc1ncc(CN2CCc3nnc(Cc4cccnc4)n3CC2)cn1	2%	-0.41
